The supplement of paper PMC10126150
Values marked as one replicate rest on one cluster of the flow cell; about a third of the high ones do not repeat.

The sequences below were run on ATP (assay: switch fluorescence ratio, 500 uM ATP over buffer (Cy3 cluster intensity, sum of 5 cycles each) (fold (ratio)); higher = stronger signal-on switching upon ATP binding; sequences stand for … in TCGTCGGCAGCGTCAGATGTGTATAAGAGACAGTTTTTTTTTTTTTTTTTTTTTTTTT…TC). Conditions: aptamer strand: ATP DNA aptamer (quencher-CACCTGGGGGAGTATTGCGGAGGAAGG + anchor), 100 nM annealed; ATP concentration: 500 uM; one replicate.
How it was run: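 Exposure to 500 uM ATP lasted 15 min at 22 °C before imaging, and a selection-buffer image was taken beforehand, for Cy3-labelled switching-strand clusters on a modified Illumina MiSeq flow-cell annealed to 100 nM quencher-labelled ATP aptamer. Five buffer/ATP cycles were run with NaOH stripping and re-annealing between them. The fluorescence ratio per cluster is summed target-cycle over summed buffer-cycle Cy3 intensity, averaged per switch-domain sequence. Clusters outside 100-1000 RFU were excluded.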
ATTTTGACGG was tested, and the switch fluorescence ratio was 1.04. TATGACACAG showed a switch fluorescence ratio of 0.968. Work on CTCAACGACT yielded a switch fluorescence ratio of 1. AATTAGGCCA gave a switch fluorescence ratio of 0.979. TGCAATATTA showed a switch fluorescence ratio of 1.38. Work on TTACACGCTC yielded a switch fluorescence ratio of 1.07. For ACACCCACTA, the switch fluorescence ratio was 1.47. In the case of CAAAATACCT, the switch fluorescence ratio is reported as 1.43. For GTTATGATGG, the switch fluorescence ratio was 1.01. ACCCGACAGC was tested, and the switch fluorescence ratio was 1.57. Sequence GTTAAGTTCC has a switch fluorescence ratio of 1.09. ATCGGGTACA was tested, and the switch fluorescence ratio was 0.999. For GGGGAGGCTA, the switch fluorescence ratio was 1.01. CCACGGGAAT showed a switch fluorescence ratio of 1.05. Sequence CCTGAGGTAA has a switch fluorescence ratio of 1.08. ATAGGATAGG was tested, and the switch fluorescence ratio was 0.97. In the case of CGGCAATAAA, the switch fluorescence ratio is reported as 3.25. For TCAGCCTCAA, the switch fluorescence ratio was 1.46. CTTTCTGTCC showed a switch fluorescence ratio of 0.973. TTTAGCTTG was tested, and the switch fluorescence ratio was 1. TTTGAGCAGC gave a switch fluorescence ratio of 0.91. ACAAACCCTT was tested, and the switch fluorescence ratio was 1.15. GTGAGCGGTA gave a switch fluorescence ratio of 1.02. Sequence GAGCGCATGA has a switch fluorescence ratio of 1.03. With TTGTCAGCGG the switch fluorescence ratio was 0.978. Sequence TCACGTGCGG has a switch fluorescence ratio of 0.989. ACGACCCGTC gave a switch fluorescence ratio of 1.02. CGGTGAGCCA showed a switch fluorescence ratio of 0.977. CCTCTATTTC gave a switch fluorescence ratio of 1.68. TGACATTACG gave a switch fluorescence ratio of 1.19. For ATGGGTGCCG, the switch fluorescence ratio was 1.03. Work on CTTAAGTCAT yielded a switch fluorescence ratio of 1. Work on GAGCAGAACA yielded a switch fluorescence ratio of 1.01. Sequence TCCATTCTTA has a switch fluorescence ratio of 0.991. Sequence GGCTGAATAT has a switch fluorescence ratio of 0.982. Sequence ACGAGCTTAG has a switch fluorescence ratio of 1.11. Work on GCATGATATC yielded a switch fluorescence ratio of 1.07. AGGGCGCATA showed a switch fluorescence ratio of 1.03. CAACAGCGAG was tested, and the switch fluorescence ratio was 1.04. For AGGAGAATGC, the switch fluorescence ratio was 1.1. With ACGCCGTTCA the switch fluorescence ratio was 1.07. With TTTTCAAAGT the switch fluorescence ratio was 0.992. Work on GTGTGACGA yielded a switch fluorescence ratio of 0.98. Sequence AGCCGGTCTA has a switch fluorescence ratio of 0.968. GGTTTTGTC gave a switch fluorescence ratio of 1.04. ACAACCAGTC showed a switch fluorescence ratio of 0.855. Work on TGTTAGTGT yielded a switch fluorescence ratio of 1.01. With TGCGTCATGC the switch fluorescence ratio was 0.992. Sequence TACGGGCATG has a switch fluorescence ratio of 1.02. With TAAAACGGTA the switch fluorescence ratio was 1.06. For TTAACGCTAC, the switch fluorescence ratio was 2.46. For ATTTAATGGC, the switch fluorescence ratio was 1.09. In the case of TTAATCATAA, the switch fluorescence ratio is reported as 0.969. AGATTCATGG showed a switch fluorescence ratio of 0.979. ACGTCCTGT showed a switch fluorescence ratio of 1.01. In the case of CATGGTGATC, the switch fluorescence ratio is reported as 1.01. Work on ATGCGGTGTA yielded a switch fluorescence ratio of 1.02. With GAGACCTTT the switch fluorescence ratio was 1.07. CTCAGTGGGA gave a switch fluorescence ratio of 0.919. With GTGGAAAATC the switch fluorescence ratio was 1.01. TAGTAGTGT showed a switch fluorescence ratio of 1. Work on TTCTAAGG yielded a switch fluorescence ratio of 1.01. CCCAGAGAAT was tested, and the switch fluorescence ratio was 0.985. CAGAGCAGGT showed a switch fluorescence ratio of 1.13. With AAAGTGGAAT the switch fluorescence ratio was 0.985. GGTGATCGTT was tested, and the switch fluorescence ratio was 1.02. CCTTGTGCGA gave a switch fluorescence ratio of 2.01. TATCTAAAGC showed a switch fluorescence ratio of 0.987. TATATCCGA was tested, and the switch fluorescence ratio was 1. TCTGCGGGGG gave a switch fluorescence ratio of 0.98. Sequence CTGGGGCAAT has a switch fluorescence ratio of 4.86. Work on ATGACGAGCC yielded a switch fluorescence ratio of 1.21. CACTGGTGCA was tested, and the switch fluorescence ratio was 1.16. ATGCCCAGAT gave a switch fluorescence ratio of 0.976. GCCGATCATT showed a switch fluorescence ratio of 1. With GAGCGAGGTT the switch fluorescence ratio was 1. In the case of TGTGTTAGTC, the switch fluorescence ratio is reported as 0.993. With CGGGACTGAA the switch fluorescence ratio was 1.04. GTGTCCTAAA was tested, and the switch fluorescence ratio was 0.995. With AGGCGTCGCG the switch fluorescence ratio was 1.02. AGATTAGGA showed a switch fluorescence ratio of 1. For CTACTACG, the switch fluorescence ratio was 1.05. TACGGCGACT showed a switch fluorescence ratio of 1.06. In the case of TAATATCTAT, the switch fluorescence ratio is reported as 0.984. For ATTGTGCGCA, the switch fluorescence ratio was 0.994. For CCCAGCTGCC, the switch fluorescence ratio was 1.64. Work on TGCTTGTAA yielded a switch fluorescence ratio of 0.997. Sequence CTAACGATT has a switch fluorescence ratio of 0.99. With AGACGGATGT the switch fluorescence ratio was 0.992. GTTTGATGTT was tested, and the switch fluorescence ratio was 0.988. Work on ACCTGAAAGA yielded a switch fluorescence ratio of 1.05. In the case of CAATCAATTT, the switch fluorescence ratio is reported as 1. AAGTACTGA was tested, and the switch fluorescence ratio was 1.27. For GAAGCTGGGG, the switch fluorescence ratio was 1.04. Work on CCGTGGAGGG yielded a switch fluorescence ratio of 0.995. Sequence GATATAGCTT has a switch fluorescence ratio of 1.02. In the case of GGCCTGACAC, the switch fluorescence ratio is reported as 1. GGTTCCGGCC was tested, and the switch fluorescence ratio was 1.02. In the case of TGCTGCAGCG, the switch fluorescence ratio is reported as 0.993. AGACGCGGTA gave a switch fluorescence ratio of 1.02.
